From PubChem BioAssay AID686979 (National Center for Advancing Translational Sciences (NCATS), 2013)
Among all 420,000 compounds or so, about 50,000 (12%) were called active. Inconclusive means that the source gave no clear call. Such entries were picked first, then a sample of the others. Calls come from the whole dose curve; as a rule, active = well fitted inhibition curve with a large enough effect; inconclusive = small, poorly fitted or top-dose-only effect; inactive = flat fitted curve, though single readings scatter. Potencies of inconclusive entries are left out as doubtful fits.

experiment: qHTS for Inhibitors of human tyrosyl-DNA phosphodiesterase 1 (TDP1): qHTS in cells in presence of CPT; conditions: chicken DT40 Tdp1-/-;hTDP1 cells + 20 nM CPT, ATP luminescence, 48 h; series mostly up to 46.2 µM; note: nearly all actives have a fitted effect of over 55% in size
In short: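 Chicken DT40 Tdp1-/- cells stably complemented with human TDP1 were seeded at 400 cells/well in medium containing 20 nM camptothecin, exposed to pin-transferred compounds, and grown at 37 °C for at least 48 hr. Viability was read as ATP luminescence.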
Potency is the fitted concentration of half-maximal effect; tags give direction and shape of the fitted curve.

Compound	Potency
COCCNC(=O)c1c(NC(=O)c2ccc(Br)o2)n(Cc2ccccc2)c2nc3ccccc3nc12	active: 18.4 µM
CCCCNC(=O)Nc1ccc(C(O)(C(=O)OCC)C(F)(F)F)cc1 (stereo not drawn)	inactive
CCOc1ccc(OC(=O)c2ccc3c(=O)n4c(nc3c2)CCC4)cc1	inconclusive [inhibitor, single point]
CCOP(=O)(Cc1cc(C(=O)CC)c(C)o1)OCC	inactive
Nc1c([N+](=O)[O-])cc(F)c(N2CCNCC2)c1Br	inconclusive [inhibitor, single point]
CCN1C[C@@H]2[C@@H]3C(=O)N(Cc4ccccc4)C(=O)[C@@H]3[C@](CC)(C1=O)N2C(=O)c1ccc(C(C)(C)C)cc1	inconclusive [inhibitor, single point]
Oc1ccc2c3c1O[C@H]1c4[nH]c5ccccc5c4C[C@]4(O)[C@H](C2)N(CC2CC2)CC[C@@]314	inconclusive [inhibitor, single point]
CN1CCC(O)(c2ccc(Cl)cc2)C(C(=O)c2ccc(Cl)cc2)C1 (stereo not drawn)	active: 2.59 µM
COc1ccc(N2CCN(Cc3nc4ccccc4[nH]3)CC2)cc1	inactive
COC(=O)C1=C(c2cccc(OCc3ccccc3)c2)C[C@@H]2CC[C@H]1N2C(=O)NCCOc1ccccc1Cl	inconclusive [inhibitor, single point]
O=C(NC1CN2CCC1CC2)c1ccc(-c2ccc([N+](=O)[O-])cc2)o1 (stereo not drawn)	inconclusive [inhibitor, partial curve]
O=C(NCC1=C(c2ccc3ccccc3c2)C[C@@H]2CC[C@H]1N2Cc1ccco1)c1ccncc1	inconclusive [inhibitor, single point]
C=CCc1c(C)[nH]c(=S)c(C#N)c1C	inconclusive [inhibitor, single point]
CN1CCN(/N=C/c2c(O)n(Cc3ccc(F)cc3)c(=O)[nH]c2=O)CC1	inactive
CC(=O)Nc1ccc(NC(=O)CN(c2ccc(C34CC5CC(CC(C5)C3)C4)cc2)S(C)(=O)=O)cc1	inconclusive [inhibitor, single point]
Cc1ccc(CNC(=O)c2ccc(CSc3nc4ccncc4n3Cc3ccc(C)cc3)cc2)cc1	active: 5.17 µM
O=C1NCN(c2ccccc2)C12CCN(C(c1cc3ccccc3o1)c1nnnn1-c1ccc3c(c1)OCCO3)CC2 (stereo not drawn)	active: 20.6 µM
COC(=O)C1=C(c2ccc(F)cc2OCc2ccccc2)C[C@@H]2CC[C@H]1N2C(=O)NC1CCCCC1	inconclusive [inhibitor, single point]
